44 sequences from the supplement of paper PMC11417369 can be followed below.

± gives the standard deviation of the averaged measurements. The list shows a part of the results.

The test system of this assay is PfAP2-G AP2 domain (GST-tagged). The assay is described as follows: gcPBM binding intensity (ln(normalized median fluorescence intensity)); higher = stronger DNA binding. A digest of the protocol:
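An Agilent 4 × 180k array of primer-extended double-stranded 36-bp intergenic genomic probes, with negative controls, was incubated for 1 h with GST-tagged P. falciparum DNA-binding domains expressed in E. coli. Alexa488 anti-GST antibody detected bound protein, scanned at 488 nm. Binding intensity is the highest Masliner-normalised natural-log median intensity across replicate spots of either probe orientation.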
For “TCTATTATCCTTTGCACACAAAATAAATGAAAAAAT [CACACA_site3029]”, the “gcPBM binding intensity (ln)” value is 10.2 ± 0.37.
Turning to “ACATTATATAAATATATACATATATATATATATAAA [GTGCAC_negctrl_site115]”, the “gcPBM binding intensity (ln)” value is 9.63 ± 0.057.
As to “TTTGATAAATGATACACACACAATATTTATAAAATA [CACACA_site7040]”, the “gcPBM binding intensity (ln)” value is 10.2 ± 0.099.
For the sequence “CCCACGTATATTTTGTGTACATAAATAAATAAATAA [XGTACX_site4046]”, the “gcPBM binding intensity (ln)” value came out at 11.6 ± 0.86.
For the sequence “TGTCATGATACATACACACACATACACATACACATA [CACACA_site2135]”, the “gcPBM binding intensity (ln)” value was determined as 10.3 ± 0.25.
“ATGCATAAAAGAAATACACACATAAATATATAAATA [CACACA_site2163]”: the “gcPBM binding intensity (ln)” value was 9.85 ± 0.028.
With “TATGGATTACACAATTGTACAAGAAAAATGTAAATA [XGTACX_site4040]”, the “gcPBM binding intensity (ln)” value is 10.9 ± 0.41.
“TATTTAATTATATAAAATTAAATTTTTAATTCTTCC [CACACA_negctrl_site473]”: the “gcPBM binding intensity (ln)” value was found to be 9.38 ± 0.21.
The value for “ACATCTATGTATAATACACACACTAATATATAATTG [CACACA_site5134]” was 10.2 ± 0.16; that for “ACATATTATTCTTCTTGTACACATAAATTTTATAAA [XGTACX_site299]” was 11.4 ± 0.88.
For “ATACGAAAATATTTTGCACACTATAATTATTCATAT [CACACA_site1765]”, the “gcPBM binding intensity (ln)” value turned out to be 10.06 ± 0.092.
In the case of “TTTCCCTACCAAAAGTGTACTTATACATATTTTTAT [XGTACX_site5495]” it was 11.5 ± 0.89; in that of AAAAAAAAAAAAAAAGTGCATTAATAAATTTTAATA, 10.4 ± 0.33; in that of “TATACTCATATATAAACACACAAAAAAAAAAAAAAA [CACACA_site5165]”, 9.71 ± 0.47.
In the case of “ATATATATATATATGTGTACATATATATATCATATG [XGTACX_site3126]” it was 11.4 ± 0.88; in that of “TTTTTTTCATAATATACACACAAAAAAAAAAAAAAA [CACACA_site3224]”, 9.97 ± 0.57.
Turning to “TGATATTTAAATTTTGCACACGCATATGAAATTAGG [CACACA_site1034]”, the “gcPBM binding intensity (ln)” value was 10.2 ± 0.16.
Regarding “TCTTATAATTTACCTACACACAGGAAATATATAAAT [CACACA_site294]”, the “gcPBM binding intensity (ln)” value was found to be 10.07 ± 0.085.
Take “TCAGAAATATTACAAAGTACATGCAACGAAAATTTC [XGTACX_site5061]”: the “gcPBM binding intensity (ln)” value amounted to 10.9 ± 0.54.
As to “ACACAATGTAGTGTATAAATACAATAAAAGGTTGTA [TGCATGCA_negctrl_site251]”, the “gcPBM binding intensity (ln)” value is 10.02 ± 0.078.
For the sequence “AAAAAAATATTCAAAGCATGCCTATTTACACATATT [TGCATGCA_site806]”, the “gcPBM binding intensity (ln)” value was determined as 9.815 ± 0.078.
As to “ATGACGTAGTGGTGTACACACATGGTACCTTTATTC [CACACA_site1547]”, the “gcPBM binding intensity (ln)” value was 11.6 ± 0.84.
As to “CATATAGTAATATATACACACACTTGTCTTGTAAAA [CACACA_site8238]”, the “gcPBM binding intensity (ln)” value was determined as 10.01 ± 0.042.
Consider “AAGAAGCATAAATGTACACACATATTTATATATTAA [CACACA_site1332]”, for which the “gcPBM binding intensity (ln)” value came out at 11.2 ± 0.77.
In the case of “ATATTTATAATTTTTTGTACACATTTTTTAAAGATA [XGTACX_site1784]”, the “gcPBM binding intensity (ln)” value is 11.4 ± 0.9.
On to “CTTTATATATAGTGTACACATTAAACAAATCTCAAT [CACACA_site5845]”, for which the “gcPBM binding intensity (ln)” value is 11.6 ± 1.
With “TTACCAAAAACCTCAAGTACAAAAAATCCCTAATAT [XGTACX_site2313]”, the “gcPBM binding intensity (ln)” value was 11 ± 0.62.
For “TTTTTTTTTTTTTTTGCACACACATTGAATTATTAT [CACACA_site198]”, the “gcPBM binding intensity (ln)” value was 9.97 ± 0.57.
Take “AAATGGAAAAGGTGTACACAAAAAAAAGGGAAAAGC [CACACA_site5331]”: the “gcPBM binding intensity (ln)” value turned out to be 11.7 ± 1.2.
In the case of “ATATATATATATATATGTACTAAATATTCATCCTTA [XGTACX_site6039]” it was 11 ± 0.65; in that of “AAGTTTAAGAAATAATTCATATTTACTTCCATCCTC [GTGCAC_negctrl_site494]”, 9.62 ± 0.34.
In the case of “ATAGTATACAGACACACACACACACGGATATAAATA [CACACA_site6914]” it was 10.3 ± 0.31; in that of “AATGGGTTAGCACATACACACCAATATATTATATAT [CACACA_site9011]”, 10.04 ± 0.071; in that of “ATTTATGATATGTAAACATGCATAAAAATTTCAAAA [TGCATGCA_site858]”, 9.685 ± 0.007.
With “TATAAACTTAATTTGAGTACTTAATAATAATTTTGT [XGTACX_site3730]”, the “gcPBM binding intensity (ln)” value was 11.4 ± 0.67.
Take “TACCACATCGGTAAATGTACTTATAAAAAAAAAAAA [XGTACX_site3364]”: the “gcPBM binding intensity (ln)” value is 11.2 ± 1.1.
For “CATCCACATATATGTACACACATATATATATATATA [CACACA_site2964]”, the “gcPBM binding intensity (ln)” value came out at 11.4 ± 0.81.
For “CAATCATTTTATTGTTGTACAGTAATTATGAATTCA [XGTACX_site7508]”, the “gcPBM binding intensity (ln)” value was 11.4 ± 0.85.
As for “TATATATGTATATATGGTACAGAATATTCTACATTA [XGTACX_site5077]”, the “gcPBM binding intensity (ln)” value came to 10.7 ± 0.49.
For the sequence “TAAGAGTAGTTATATACACACATGTATATTATAGTT [CACACA_site6815]”, the “gcPBM binding intensity (ln)” value is 9.81 ± 0.071.
As for “TTGGTACCTATAGATACACACATATATACATATATA [CACACA_site3402]”, the “gcPBM binding intensity (ln)” value was found to be 10.8 ± 0.61.
Consider “TTATAAATTAGAGGTACACACAAAAAAAAAAAGAAA [CACACA_site6740]”, for which the “gcPBM binding intensity (ln)” value is 11.4 ± 0.86.
Turning to “CACGACATTAACAATACATGCAGAAAAACAAAAAAT [TGCATGCA_site689]”, the “gcPBM binding intensity (ln)” value was determined as 10.085 ± 0.007.
“ATTTTTAATATTATTACACACACTAAAAAAAAAAAA [CACACA_site1067]”: the “gcPBM binding intensity (ln)” value is 10.1 ± 0.4.
